Measurements taken from a collection of fitness landscapes (doi:10.1126/science.1257360).
The list shows a part of the results.

B1: PhoQ; a variant is named by its letters at X, in order, P23837 (parent)
chain: MKKLLRLFFPLSLRVRFLLATAAVVLVLSLAYGMVALIGYSVSFDKTTFRLLRGESNLFYTLAKWENNKLHVELPENIDKQSPTMTLIYDENGQLLWAQRDVPWLMKMIQPDWLKSNGFHEIEADVNDTSLLLSGDHSIQQQLQEVREDDDDAEMTHSVAVNVYPATSRMPKLTIVVVDTIPVELKSSYMVWSWFIYVLSANLLLVIPLLWVAAWWSLRPIEALAKEVRELEEHNRELLNPATTRELTSLVRNLNRLLKSERERYDKYRTTLTDLTHSLKTPLXXLQXXLRSLRSEKMSVSDAEPVMLEQISRISQQIGYYLHRASMRGGTLLSRELHPVAPLLDNLTSALNKVYQRKGVNISLDISPEISFVGEQNDFVEVMGNVLDNACKYCLEFVEISARQTDEHLYIVVEDDGPGIPLSKREVIFDRGQRVDTLRPGQGVGLAVAREITEQYEGKIVAGESMLGGARMEVIFGRQHSAPKDE

Variants of: B1
Test: enrichment ratio after two sorts for PhoP signalling (ratio (wild type AVST 3.29)); higher = more functional
Conditions: with PhoP (E. coli)

| Variant | enrichment ratio |
| --- | --- |
| LIII | ≤ 0.25 |
| RPWY | ≤ 0.25 |
| DWIN | ≤ 0.25 |
| GENG | ≤ 0.25 |
| YYVA | ≤ 0.25 |
| DQAS | ≤ 0.25 |
| ITYS | ≤ 0.25 |
| FAKV | 0.3 |
| GDGI | ≤ 0.25 |
| RVVA | ≤ 0.25 |
| MILT | ≤ 0.25 |
| GDQK | ≤ 0.25 |
| LKNK | ≤ 0.25 |
| TLKI | ≤ 0.25 |
| SENP | ≤ 0.25 |
| GIYF | ≤ 0.25 |
| HDKY | ≤ 0.25 |
| SFND | ≤ 0.25 |
| IGAY | ≤ 0.25 |
| MKST | ≤ 0.25 |
| TKFC | ≤ 0.25 |
| YEWA | ≤ 0.25 |
| MTRI | ≤ 0.25 |
| KCLY | ≤ 0.25 |

| Variant | enrichment ratio |
| --- | --- |
| RAFP | ≤ 0.25 |
| QEWI | 4.11 |
| DDSH | ≤ 0.25 |
| CSVL | ≤ 0.25 |
| PTDG | ≤ 0.25 |
| PEAP | ≤ 0.25 |
| STPG | ≤ 0.25 |
| RDRC | ≤ 0.25 |
| QFYM | ≤ 0.25 |
| ASVC | 5.25 |
| LETY | ≤ 0.25 |
| TAVY | 0.402 |
| IAHE | ≤ 0.25 |
| SITR | 11.4 |
| KFWT | ≤ 0.25 |
| NCGF | ≤ 0.25 |
| VCNK | ≤ 0.25 |
| WFWS | ≤ 0.25 |
| YLKG | ≤ 0.25 |
| HSFI | ≤ 0.25 |
| SNNF | 6.15 |
| EALQ | ≤ 0.25 |
| LTHI | ≤ 0.25 |
| NEGW | ≤ 0.25 |

| Variant | enrichment ratio |
| --- | --- |
| HVYS | ≤ 0.25 |
| IGFV | ≤ 0.25 |
| SAAP | ≤ 0.25 |
| VYYW | ≤ 0.25 |
| GQFR | ≤ 0.25 |
| WLQL | ≤ 0.25 |
| EFVD | ≤ 0.25 |
| NTNG | ≤ 0.25 |
| DRVS | ≤ 0.25 |
| RHPK | ≤ 0.25 |
| YPKD | ≤ 0.25 |
| WTKI | ≤ 0.25 |
| WAIP | ≤ 0.25 |
| IFWN | ≤ 0.25 |
| WHQA | ≤ 0.25 |
| WVVH | ≤ 0.25 |
| ISFI | ≤ 0.25 |
| QVYR | ≤ 0.25 |
| YDCS | ≤ 0.25 |
| KTSQ | ≤ 0.25 |
| IHLC | ≤ 0.25 |
| NCAV | ≤ 0.25 |
| QFDA | ≤ 0.25 |
| AIKL | ≤ 0.25 |

| Variant | enrichment ratio |
| --- | --- |
| KCSC | ≤ 0.25 |
| LEQA | ≤ 0.25 |
| SMPN | ≤ 0.25 |
| KAFE | ≤ 0.25 |
| ELWG | ≤ 0.25 |
| HEPM | ≤ 0.25 |
| NAKY | ≤ 0.25 |
| HSMI | 17.4 |
| IECI | ≤ 0.25 |
| NQWP | ≤ 0.25 |
| RIGC | ≤ 0.25 |
| YEQI | ≤ 0.25 |
| WNAA | ≤ 0.25 |
| NDEY | ≤ 0.25 |
| IWYE | ≤ 0.25 |
| SCDL | ≤ 0.25 |
| SQRT | ≤ 0.25 |
| PPSP | ≤ 0.25 |
| PTHE | ≤ 0.25 |
| SNDV | ≤ 0.25 |
| HSYT | ≤ 0.25 |
| KMTA | 0.275 |
| YRHN | ≤ 0.25 |
| IHND | ≤ 0.25 |

| Variant | enrichment ratio |
| --- | --- |
| GDYN | ≤ 0.25 |
| NKTA | ≤ 0.25 |
| YGHA | ≤ 0.25 |
| YGNN | ≤ 0.25 |
| EKMD | ≤ 0.25 |
| VTAI | 1.25 |
| SVLR | 2.79 |
| QHCM | ≤ 0.25 |
| TGDS | ≤ 0.25 |
| HGMR | ≤ 0.25 |
| SPVQ | ≤ 0.25 |
| IMHN | ≤ 0.25 |
| KCNP | ≤ 0.25 |
| EAHR | ≤ 0.25 |
| NSQI | ≤ 0.25 |
| FVKT | ≤ 0.25 |
| THFP | ≤ 0.25 |
| NCMT | ≤ 0.25 |
| FFII | ≤ 0.25 |
| IYVG | ≤ 0.25 |
| SRNP | ≤ 0.25 |
| QNKY | ≤ 0.25 |
| EQIM | ≤ 0.25 |
| NIWE | ≤ 0.25 |

| Variant | enrichment ratio |
| --- | --- |
| GPKS | ≤ 0.25 |
| SHNA | 3.35 |
| GVVM | 4.42 |
| VMPI | ≤ 0.25 |
| NTQI | ≤ 0.25 |
| AWDL | ≤ 0.25 |
| ENQQ | ≤ 0.25 |
| HVYT | ≤ 0.25 |
| RCPR | ≤ 0.25 |
| YTNH | ≤ 0.25 |
| QDTF | ≤ 0.25 |
| GKTH | ≤ 0.25 |
| SPLP | ≤ 0.25 |
| IPQR | ≤ 0.25 |
| EGHG | ≤ 0.25 |
| ERSM | ≤ 0.25 |
| ECDW | ≤ 0.25 |
| DYRC | ≤ 0.25 |
| HDPV | ≤ 0.25 |
| SRMN | ≤ 0.25 |
| NQYG | ≤ 0.25 |
| WGND | ≤ 0.25 |
| DTNY | ≤ 0.25 |
| RDFD | ≤ 0.25 |

| Variant | enrichment ratio |
| --- | --- |
| YREP | ≤ 0.25 |
| MTDH | ≤ 0.25 |
| YLFI | ≤ 0.25 |
| SSIA | 10.8 |
| CRSR | ≤ 0.25 |
| SPWS | ≤ 0.25 |
| YNYA | ≤ 0.25 |
| PLWS | 0.411 |
| SWCR | ≤ 0.25 |
| WREH | ≤ 0.25 |
| AYGW | ≤ 0.25 |
| VGCG | ≤ 0.25 |
| PRIV | ≤ 0.25 |
| NAHP | ≤ 0.25 |
| AMLK | 5.12 |
| QTTA | ≤ 0.25 |
| PVFE | ≤ 0.25 |
| QQNW | ≤ 0.25 |
| WFRE | ≤ 0.25 |
| HSVP | ≤ 0.25 |
| HNFN | ≤ 0.25 |
| WNTR | ≤ 0.25 |
| HHFS | ≤ 0.25 |
| DWYV | ≤ 0.25 |

| Variant | enrichment ratio |
| --- | --- |
| PGRW | ≤ 0.25 |
| FIYE | ≤ 0.25 |
| NNPS | ≤ 0.25 |
| ELYK | ≤ 0.25 |
| AVTR | 7.68 |
| VGTV | ≤ 0.25 |
| VCGM | ≤ 0.25 |
| FCTR | ≤ 0.25 |
| VHCC | ≤ 0.25 |
| WSNY | ≤ 0.25 |
| GCAE | ≤ 0.25 |
| YATD | ≤ 0.25 |
| PIME | ≤ 0.25 |
| ILCN | ≤ 0.25 |
| VRAW | ≤ 0.25 |
| ADTS | ≤ 0.25 |
| NPCY | ≤ 0.25 |
| MLLW | ≤ 0.25 |
| NLFF | ≤ 0.25 |
| TICA | 12.3 |
| DLVH | ≤ 0.25 |
| RWIN | ≤ 0.25 |
| WQIW | ≤ 0.25 |
| DAID | ≤ 0.25 |

| Variant | enrichment ratio |
| --- | --- |
| EPHW | ≤ 0.25 |
| WFHE | ≤ 0.25 |
| TTQA | 1.39 |
| FTAM | 2.38 |
| MKGC | ≤ 0.25 |
| MKPW | ≤ 0.25 |
| VPKV | ≤ 0.25 |
| TFWC | ≤ 0.25 |
| TAGQ | 4.6 |
| VSWM | 2.15 |
| ADTY | ≤ 0.25 |
| SQHA | ≤ 0.25 |
| SCCE | 13.9 |
| FTIE | ≤ 0.25 |
| YVLT | ≤ 0.25 |
| DIRS | ≤ 0.25 |
| GMCP | ≤ 0.25 |
| MTTV | ≤ 0.25 |
| KLLF | ≤ 0.25 |
| IFGD | ≤ 0.25 |
| HEYI | ≤ 0.25 |
| WMQK | ≤ 0.25 |
| FIYT | ≤ 0.25 |
| NQRN | ≤ 0.25 |

| Variant | enrichment ratio |
| --- | --- |
| ITHA | ≤ 0.25 |
| LCPI | ≤ 0.25 |
| IHSK | ≤ 0.25 |
| IDLM | ≤ 0.25 |
| PKRV | ≤ 0.25 |
| SWRW | ≤ 0.25 |
| TQAG | 28.2 |
| YFEF | ≤ 0.25 |
| DAQH | ≤ 0.25 |
| YDYM | ≤ 0.25 |
| SDHN | 0.345 |
| DVMP | ≤ 0.25 |
| SRAL | ≤ 0.25 |
| WPPA | ≤ 0.25 |
| DKRT | ≤ 0.25 |
| NRGV | ≤ 0.25 |
| HPDH | ≤ 0.25 |
| MEIQ | 19.4 |
| VHNK | ≤ 0.25 |
| YQRT | ≤ 0.25 |
| DGYC | ≤ 0.25 |
| IHNV | ≤ 0.25 |
| ESVG | ≤ 0.25 |
| GQAI | 4.1 |

| Variant | enrichment ratio |
| --- | --- |
| IMPG | ≤ 0.25 |
| LMYY | ≤ 0.25 |
| LSMD | ≤ 0.25 |
| QDFF | ≤ 0.25 |
| RVYW | ≤ 0.25 |
| VGAT | ≤ 0.25 |
| TEEC | 12.4 |
| MQHT | ≤ 0.25 |
| FNMG | ≤ 0.25 |
| KPDI | ≤ 0.25 |
| QSPT | ≤ 0.25 |
| GRYL | ≤ 0.25 |
| KSNH | ≤ 0.25 |
| VQTY | ≤ 0.25 |
| TKMN | 4.26 |
| YPET | ≤ 0.25 |
| DQPD | ≤ 0.25 |
| GNKK | ≤ 0.25 |
| SGSR | ≤ 0.25 |
| PFLP | ≤ 0.25 |
| WVPS | ≤ 0.25 |
| NCSW | ≤ 0.25 |
| NPAW | ≤ 0.25 |
| YISI | 2.89 |

| Variant | enrichment ratio |
| --- | --- |
| WHMF | ≤ 0.25 |
| NKLG | ≤ 0.25 |
| YEVW | ≤ 0.25 |
| SACI | 13.7 |
| DTFQ | ≤ 0.25 |
| KKAI | ≤ 0.25 |
| AQVP | ≤ 0.25 |
| FRKG | ≤ 0.25 |
| IYDV | ≤ 0.25 |
| ICLF | ≤ 0.25 |
| SHGC | ≤ 0.25 |
| VAER | ≤ 0.25 |
| RVSQ | ≤ 0.25 |
| TFGT | ≤ 0.25 |
| DADC | ≤ 0.25 |
| FTMI | 13.1 |
| WNFF | ≤ 0.25 |
| VKII | ≤ 0.25 |
| MYCD | ≤ 0.25 |
| MYVD | ≤ 0.25 |
| RFRA | ≤ 0.25 |
| QMRE | ≤ 0.25 |
| YYLT | ≤ 0.25 |
| TQDT | ≤ 0.25 |

| Variant | enrichment ratio |
| --- | --- |
| DNNF | ≤ 0.25 |
| DYSP | ≤ 0.25 |
| VPEN | ≤ 0.25 |
| GWYK | ≤ 0.25 |
| WSIF | ≤ 0.25 |
| TFEL | ≤ 0.25 |
| SDCK | ≤ 0.25 |
| QQLV | 1.8 |
| EPQF | ≤ 0.25 |
| DKNN | ≤ 0.25 |
| PCNC | ≤ 0.25 |
| GNML | 12.2 |
| GQYA | ≤ 0.25 |
| PVVE | ≤ 0.25 |
| VRGA | ≤ 0.25 |
| DCDI | ≤ 0.25 |
| ESYG | ≤ 0.25 |
| PVFF | ≤ 0.25 |
